# Data published in PubChem BioAssay (Tox21).
# Several values for one entry are separate records, joined by “and”; a condition that tells them apart may be missing. Equal values may be shown once. Inconclusive results, whose numbers are uncertain, are shown with a selection of clear calls. For some of these results: Potencies beside an inconclusive call are fits to weak or partial responses and may not hold up. Some compounds were tested as several samples or in several runs, with calls that do not always agree. Activity calls are given as the source filed them. Unless noted, calls come from the whole dose curve; as a rule, active = well fitted curve in the direction sought with a large enough effect in the repeat runs; inconclusive = weak or mixed curves; inactive = no such curve, though single readings can be large; an effect the other way counts as inactive or inconclusive.
# Assays:
# [1] = qHTS assay for small molecule agonists of the p53 signaling pathway - cell viability (AID 651633; calls by dose curve;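 note: p53RE-bla HCT reporter cells with a stable beta-lactamase p53 reporter; % is set by controls: 0 for no effect and ±100 for the full control effect; nearly all actives have a fitted effect of over 30% in size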)
# Method in brief: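 Viability counter-read: CellTiter-Glo luminescence (30 min, room temperature) in the same p53RE-bla plates. These plates had been exposed to compounds for 16 h at 37 C.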
# [2] = qHTS assay for small molecules that induce genotoxicity in human embryonic kidney cells expressing luciferase-tagged ATAD5 - cell viability (AID 651634; calls by dose curve; note: potency is the fitted concentration of half-maximal effect; nearly all actives have a fitted effect of over 25% in size)
# Method in brief: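 HEK293T cells expressing luciferase-tagged ATAD5 were exposed to compound or DMSO for 15.5 hr at 37C, 5% CO2. Viability was then read as live-cell protease activity by CellTiter-Fluor fluorescence after 30 min at 37C.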
# [3] = qHTS assay for small molecule disruptors of the mitochondrial membrane potential (AID 720635); settings: HepG2 mitochondrial membrane potential, Mito-MPS dye ratio; note: potency is the fitted concentration of half-maximal effect; for ratio activity, negative = MMP loss: % is set by controls: 0 for no effect and ±100 for the full control effect
# Method in brief: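 Mitochondrial membrane potential tracked with Mito-MPS dye, red aggregates (ex 540/em 590 nm) against green monomers (ex 490/em 535 nm). Compound treatment 1 hr at 37C, dye 30 min in HepG2.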
# [4] = qHTS assay for identifying genotoxic compounds that show differential cytotoxicity against isogenic chicken DT40 cell lines with known DNA damage response pathways - Rev3 mutant cell line (AID 743014); settings: chicken DT40 Rev3-/- viability, CellTiter-Glo, 40 h; activity, negative = cytotoxicity: at 68.4 µM (top of the series) unless noted; note: potency is the fitted concentration of half-maximal effect; nearly all actives have a fitted effect of over 55% in size
# [5] = qHTS assay for identifying genotoxic compounds that show differential cytotoxicity against isogenic chicken DT40 cell lines with known DNA damage response pathways - Rad54/Ku70 mutant cell line (AID 743015); settings: DT40 Rad54/Ku70 mutant viability, CellTiter-Glo, 40 h; activity change, negative = cytotoxicity: at 66.8 µM (top of the series) unless noted; note: potency is the fitted concentration of half-maximal effect; nearly all actives have a fitted effect of over 60% in size
# [6] = qHTS assay to identify small molecule antagonists of the thyroid receptor (TR) signaling pathway - cell viability counter screen (AID 743064); settings: GH3.TRE-Luc viability, CellTiter-Fluor, 24 h; activity change, negative = cytotoxic: at 70.3 µM (top of the series) unless noted; note: potency is the fitted concentration of half-maximal effect; nearly all actives have a fitted effect of over 50% in size
# Method in brief: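 In-well cytotoxicity read by CellTiter-Fluor (30 min, 37 C) following 23.5 h exposure of GH3 cells bearing a TRE-luciferase sensor. Compounds were added alongside 1 nM (final) T3 to drive TR transactivation.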
# [7] = qHTS assay to identify small molecule antagonists of the estrogen receptor alpha (ER-alpha) signaling pathway - cell viability counter screen (AID 743074; calls by dose curve;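 note: HEK293 cells carrying ER-alpha-UAS-bla reporter stimulated with 17beta-estradiol; potency is the fitted concentration of half-maximal effect; nearly all actives have a fitted effect of over 45% in size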)
# [8] = qHTS assay to identify aromatase inhibitors - cell viability counter screen (AID 743084); settings: MCF-7 aro ERE viability, CellTiter-Fluor, 24 h; activity change, negative = cytotoxicity: at 70.3 µM (top of the series) unless noted;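 note: cells stimulated with testosterone during compound exposure; potency is the fitted concentration of half-maximal effect; nearly all actives have a fitted effect of over 55% in size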
# [9] = qHTS assay to identify small molecule that activate the aryl hydrocarbon receptor (AhR) signaling pathway - cell viability counter screen (AID 743086); note: potency is the fitted concentration of half-maximal effect; nearly all actives have a fitted effect of over 45% in size
# Method in brief: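 Cytotoxicity counter screen: CellTiter-Fluor signal (30 min, 37 C) in 4000 HepG2 cells/well carrying the DRE-luciferase reporter, following 24 h compound exposure at 37 C.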
# [10] = biological target: Peroxisome proliferator-activated receptor gamma (Homo sapiens) (UniProt P37231); assay: qHTS assay to identify small molecule antagonists of the peroxisome proliferator-activated receptor gamma (PPARg) signaling pathway (AID 743191; calls by dose curve; note: % is set by controls: 0 for no effect and ±100 for the full control effect; nearly all actives have a fitted effect of over 30% in size); settings: HEK293H PPARg-UAS-bla, beta-lactamase ratio, antagonist, 17 h; ratio activity, negative = inhibition: at 62.6 µM (top of the series) unless noted
# Method in brief: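 Beta-lactamase reporter under UAS control in HEK293H PPARg-bla cells; compound treatment 17 h at 37C. Read-out: fluorescence intensity after 1 h room-temperature incubation with LiveBLAzer B/G FRET substrate.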
# [11] = qHTS assay to identify small molecule antagonists of the peroxisome proliferator-activated receptor gamma (PPARg) signaling pathway - cell viability counter screen (AID 743194); settings: PPARg-bla HEK293H viability, CellTiter-Glo luminescence, 17 h, co-treated with 50 nM rosiglitazone; activity change, negative = cytotoxicity: at 62.6 µM (top of the series) unless noted; note: potency is the fitted concentration of half-maximal effect; nearly all actives have a fitted effect of over 55% in size
# Method in brief: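 Viability was measured as CellTiter-Glo luminescence in GeneBLAzer PPARg UAS-bla HEK293H cells. These cells had been exposed 17 h at 37 C to compounds together with rosiglitazone at 50 nM final, with the beta-lactamase readout taken in the same wells.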
# [12] = qHTS assay for small molecule agonists of the antioxidant response element (ARE) signaling pathway (AID 743202; active = well fitted activation curve with a large enough effect in the signal ratio in the repeat runs, not every such curve was filed as active; inconclusive = weak or mixed curves, or effect the other way; inactive = no such curve, though single readings can be large or run the other way; the % refers to the signal ratio; note: % is set by controls: 0 for no effect and ±100 for the full control effect); settings: HepG2 ARE-bla reporter, beta-lactamase FRET, 16 h
# Method in brief: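 Quantitative high-throughput format in HepG2 cells bearing an integrated ARE-beta-lactamase reporter. Compound exposure lasted 16 h at 37 C, and fluorescence was read 2 h after adding LiveBLAzer B/G substrate at room temperature.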
# [13] = qHTS assay to identify small molecule antagonists of the peroxisome proliferator-activated receptor delta (PPARd) signaling pathway - cell viability counter screen (AID 743213); settings: PPARd-bla HEK293H viability, CellTiter-Glo luminescence, 17 h; viability change, negative = cytotoxic: at 62 µM (top of the series) unless noted; note: potency is the fitted concentration of half-maximal effect; nearly all actives have a fitted effect of over 50% in size
# Method in brief: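 Agonist-stimulated (L165041, 300 nM final) HEK293H PPARd UAS-bla cells are exposed to compounds for 17 h at 37 C, and ATP-based luminescence (CellTiter-Glo) from the same wells reports cytotoxicity.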
# [14] = qHTS assay to identify small molecule agonists of the farnesoid-X-receptor (FXR) signaling pathway - cell viability counter screen (AID 743218); settings: FXR-bla HEK293T viability, CellTiter-Glo luminescence, 16 h; viability change, negative = cytotoxic: at 62.6 µM (top of the series) unless noted; note: nearly all actives have a fitted effect of over 45% in size; note: potency is the fitted concentration of half-maximal effect; for viability change, negative = cytotoxic: % is set by controls: 0 for no effect and ±100 for the full control effect
# Method in brief: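 FXR-UAS-bla HEK 293T cells, plated 5 h at 37 C, were exposed to compounds for 16 h at 37 C. CellTiter-Glo was then added to the same wells as the bla readout; luminescence read after 30 min at room temperature.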
# [15] = biological target: Vitamin D3 receptor (Homo sapiens) (UniProt P11473); assay: qHTS assay to identify small molecule antagonists of the vitamin D receptor (VDR) signaling pathway (AID 743223; active = well fitted inhibition curve with a large enough effect in the signal ratio in the repeat runs, not every such curve was filed as active; inconclusive = weak or mixed curves, or effect the other way; inactive = no such curve, though single readings can be large or run the other way; the % refers to the signal ratio; note: potency is the fitted concentration of half-maximal effect); settings: VDR-UAS-bla HEK293T, beta-lactamase FRET ratio, 16 h; activity change, negative = inhibition: at 61 µM (top of the series) unless noted
# Method in brief: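 Antagonist mode: compound added to VDR-bla cells alongside agonist 1alpha,25-dihydroxyvitamin D3 (3 nM final), incubation 16 h at 37C. Read-out is LiveBLAzer FRET fluorescence, 2 h at room temperature.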
# Tags give direction and shape of the fitted curve or compound fluorescence and quenching.
# Sequence of UniProt P37231 (P37231 whole entry, looked up): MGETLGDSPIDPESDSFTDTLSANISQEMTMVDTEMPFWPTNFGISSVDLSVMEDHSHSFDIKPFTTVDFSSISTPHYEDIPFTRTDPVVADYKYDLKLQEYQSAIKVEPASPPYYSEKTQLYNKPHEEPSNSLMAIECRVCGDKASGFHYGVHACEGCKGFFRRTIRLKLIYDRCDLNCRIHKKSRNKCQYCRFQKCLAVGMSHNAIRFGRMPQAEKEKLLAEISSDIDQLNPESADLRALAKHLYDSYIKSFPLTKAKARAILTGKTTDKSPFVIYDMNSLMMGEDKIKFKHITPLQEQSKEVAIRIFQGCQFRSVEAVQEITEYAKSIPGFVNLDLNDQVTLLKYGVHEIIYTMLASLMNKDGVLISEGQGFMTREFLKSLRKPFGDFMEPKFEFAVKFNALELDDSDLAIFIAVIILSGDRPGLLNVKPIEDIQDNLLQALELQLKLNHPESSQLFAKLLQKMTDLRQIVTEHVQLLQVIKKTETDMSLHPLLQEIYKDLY
# Sequence of UniProt P11473 (P11473 whole entry, looked up): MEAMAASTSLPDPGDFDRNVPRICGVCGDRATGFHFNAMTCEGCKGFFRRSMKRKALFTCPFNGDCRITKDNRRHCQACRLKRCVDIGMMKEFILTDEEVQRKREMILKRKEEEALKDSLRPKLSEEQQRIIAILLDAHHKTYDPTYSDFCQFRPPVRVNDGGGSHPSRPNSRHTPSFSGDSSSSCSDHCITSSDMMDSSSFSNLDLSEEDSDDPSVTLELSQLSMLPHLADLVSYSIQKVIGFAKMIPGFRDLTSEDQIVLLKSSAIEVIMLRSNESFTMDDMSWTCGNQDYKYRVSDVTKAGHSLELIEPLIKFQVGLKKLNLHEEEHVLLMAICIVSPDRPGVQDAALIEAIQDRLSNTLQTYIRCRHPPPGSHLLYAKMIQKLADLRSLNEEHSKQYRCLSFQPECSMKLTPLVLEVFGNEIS
structure (smiles),measurement,setting,value
C[C@](N)(Cc1ccc(O)c(O)c1)C(=O)O,Potency,[1],inactive
same,Potency,[2],"inconclusive: 33.5 µM [falling, partial curve, poor fit]"
same,"ratio activity, negative = MMP loss",[3]; at 83.2 µM (top of the series),inconclusive: 9.3% and inconclusive: 17.3%
same,"ratio activity, negative = MMP loss",[3]; at 95.3 µM (top of the series),inconclusive: -8.08%
same,Potency,"[3]; ratio activity, negative = MMP loss: at 83.2 µM (top of the series) unless noted","inconclusive: 30.6 µM [inhibitor, single point]"
same,Potency,[4],"inconclusive: 68.6 µM [cytotoxic, single point] and active: 61.6 µM and active: 60.9 µM"
same,Potency,[5],"inconclusive: 68.6 µM [cytotoxic, single point]"
same,Potency,[6],"inconclusive: 68.4 µM [cytotoxic, single point]"
same,Potency,[7],"inconclusive: 1.56 µM [cytotoxic, full curve, poor fit]"
same,Potency,[8],"inconclusive: 68.6 µM [cytotoxic] and inconclusive: 77.5 µM [cytotoxic, partial curve, poor fit]"
same,Potency,[9],"inconclusive: 13.3 µM [rising, partial curve, poor fit]"
same,"ratio activity, negative = inhibition",[10],inconclusive: 8.63% and inconclusive: 1.02%
same,Potency,[11],"inconclusive: 4.35 µM [rising, full curve, poor fit]"
same,activation,[12]; at 73.3 µM (top of the series),inactive: 0.488% and inconclusive: 9.98% and inactive: -4.06%
same,activation,[12]; at 94.8 µM (top of the series),inconclusive: -11.5%
same,Potency,[13],"inconclusive: 0.0347 µM [cytotoxic, full curve, poor fit]"
same,Potency,[14],"inconclusive: 0.0035 µM [rising, full curve, poor fit]"
same,"viability change, negative = cytotoxic",[14],inconclusive: -19.3% [cytotoxic]
same,Potency,[15],"inconclusive: 24.5 µM [activator, partial curve]"
